{
  "source": "the supplement of paper PMC8728848",
  "binders": {"B1": {"name": "Epa7 (Candida glabrata), Q6DTM6_CANGB (protein)", "chain": "MGSSHHHHHHSSGLVPRGSHMKDDYSSFLSNNNLGWTDPTEFPLGCSPNVTTPKNGLSMELYSYDLRKNGSYPCWDAAYLDPNYPRTGYKSHRLLAKVDGVTGNINFYYHATKGCTPEIDHLPASYNYPKPLTMTNFTMLLYGYFKPKVTGYHTFTISADDLLFVNFGAGNAFDCCKRESSADDFGNYQAYAVWGSQTAKDDLTVHLDAGLYYPIRIFFNNREYDAELSLTLKTESDSNPVIDFSDYFYSFDDTKDGCPGLVSYDTS"}},
  "test_in_all_cases": "glycan array binding signal (z-score within array); higher = stronger binding",
  "conditions_in_all_cases": "glycan notation: IUPAC condensed, linker removed",
  "key": {"Fuc(a1-2)Gal": {"target": "Fuc(a1-2)Gal", "summary_of_the_method": "(§1)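 Glycan array data were curated from 3228 arrays in the Consortium for Functional Glycomics database and kept only where the protein sequence was available. Glycan names were converted to IUPAC-condensed notation, and columns mapping to the same glycan were averaged. The binding signal is a within-array Z-score, averaged across arrays of the same protein sequence at different concentrations or buffers and across linkers. Negative Z-scores can be read as non-binding.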"}, "Fuc(a1-2)Gal(b1-3)GalNAc": {"target": "Fuc(a1-2)Gal(b1-3)GalNAc", "summary_of_the_method": "as §1"}, "[1]": {"target": "Fuc(a1-2)Gal(b1-3)GalNAc(a1-3)[Fuc(a1-2)]Gal(b1-4)Glc", "summary_of_the_method": "as §1"}, "[2]": {"target": "Fuc(a1-2)Gal(b1-3)GalNAc(a1-3)[Fuc(a1-2)]Gal(b1-4)GlcNAc", "summary_of_the_method": "as §1"}, "[3]": {"target": "Fuc(a1-2)Gal(b1-3)GalNAc(b1-3)Gal", "summary_of_the_method": "as §1"}, "[4]": {"target": "Fuc(a1-2)Gal(b1-3)GalNAc(b1-3)Gal(a1-4)Gal(b1-4)Glc", "summary_of_the_method": "as §1"}, "[5]": {"target": "Fuc(a1-2)Gal(b1-3)GalNAc(b1-3)Gal(b1-4)Glc", "summary_of_the_method": "as §1"}, "[6]": {"target": "Fuc(a1-2)Gal(b1-3)GalNAc(b1-4)[Neu5Ac(a2-3)]Gal(b1-4)Glc", "summary_of_the_method": "as §1"}, "Fuc(a1-2)Gal(b1-3)GlcNAc": {"target": "Fuc(a1-2)Gal(b1-3)GlcNAc", "summary_of_the_method": "as §1"}, "[7]": {"target": "Fuc(a1-2)Gal(b1-3)GlcNAc(b1-2)Man(a1-3)[Fuc(a1-2)Gal(b1-3)GlcNAc(b1-2)Man(a1-6)]Man(b1-4)GlcNAc(b1-4)GlcNAc", "summary_of_the_method": "as §1"}, "[8]": {"target": "Fuc(a1-2)Gal(b1-3)GlcNAc(b1-2)Man(a1-3)[Fuc(a1-2)Gal(b1-3)GlcNAc(b1-2)Man(a1-6)]Man(b1-4)GlcNAc(b1-4)[Fuc(a1-6)]GlcNAc", "summary_of_the_method": "as §1"}, "[9]": {"target": "Fuc(a1-2)Gal(b1-3)GlcNAc(b1-3)Gal(b1-4)Glc", "summary_of_the_method": "as §1"}, "[10]": {"target": "Fuc(a1-2)Gal(b1-3)GlcNAc(b1-3)GalNAc", "summary_of_the_method": "as §1"}, "[11]": {"target": "Fuc(a1-2)Gal(b1-3)GlcNAc(b1-3)[Fuc(a1-2)Gal(b1-3)GlcNAc(b1-6)]GalNAc", "summary_of_the_method": "as §1"}, "[12]": {"target": "Fuc(a1-2)Gal(b1-3)GlcNAc(b1-3)[Gal(b1-4)GlcNAc(b1-6)]Gal(b1-4)Glc", "summary_of_the_method": "as §1"}, "[13]": {"target": "Fuc(a1-2)Gal(b1-3)GlcNAc(b1-3)[Neu5Ac(a2-6)Gal(b1-4)GlcNAc(b1-6)]Gal(b1-4)Glc", "summary_of_the_method": "as §1"}, "[14]": {"target": "Fuc(a1-2)Gal(b1-3)GlcNAc6S", "summary_of_the_method": "as §1"}, "[15]": {"target": "Fuc(a1-2)Gal(b1-3)[Fuc(a1-4)]GlcNAc", "summary_of_the_method": "as §1"}, "[16]": {"target": "Fuc(a1-2)Gal(b1-3)[Fuc(a1-4)]GlcNAc(b1-2)Man(a1-3)[Fuc(a1-2)Gal(b1-3)[Fuc(a1-4)]GlcNAc(b1-2)Man(a1-3)]Man(b1-4)GlcNAc(b1-4)GlcNAc", "summary_of_the_method": "as §1"}, "[17]": {"target": "Fuc(a1-2)Gal(b1-3)[Fuc(a1-4)]GlcNAc(b1-2)Man(a1-3)[Fuc(a1-2)Gal(b1-3)[Fuc(a1-4)]GlcNAc(b1-2)Man(a1-6)]Man(b1-4)GlcNAc(b1-4)[Fuc(a1-6)]GlcNAc(b1-4)[Fuc(a1-6)]GlcNAc", "summary_of_the_method": "as §1"}, "[18]": {"target": "Fuc(a1-2)Gal(b1-3)[Fuc(a1-4)]GlcNAc(b1-3)[Fuc(a1-3)[Gal(b1-4)]GlcNAc(b1-6)]Gal(b1-4)Glc", "summary_of_the_method": "as §1"}, "[19]": {"target": "Fuc(a1-2)Gal(b1-3)[Fuc(a1-4)]GlcNAc(b1-3)[Gal(b1-4)GlcNAc(b1-6)]Gal(b1-4)Glc", "summary_of_the_method": "as §1"}, "[20]": {"target": "Fuc(a1-2)Gal(b1-4)Fuc(a1-3)]GlcNAc(b1-2)Man(a1-3)[Fuc(a1-2)Gal(b1-4)[Fuc(a1-3)]GlcNAc(b1-2)Man(a1-6)]Man(b1-4)GlcNAc(b1-4)GlcNAc", "summary_of_the_method": "as §1"}, "Fuc(a1-2)Gal(b1-4)Glc": {"target": "Fuc(a1-2)Gal(b1-4)Glc", "summary_of_the_method": "as §1"}, "Fuc(a1-2)Gal(b1-4)Glc6S": {"target": "Fuc(a1-2)Gal(b1-4)Glc6S", "summary_of_the_method": "as §1"}, "Fuc(a1-2)Gal(b1-4)GlcNAc": {"target": "Fuc(a1-2)Gal(b1-4)GlcNAc", "summary_of_the_method": "as §1"}, "[21]": {"target": "Fuc(a1-2)Gal(b1-4)GlcNAc(b1-2)Man", "summary_of_the_method": "as §1"}, "[22]": {"target": "Fuc(a1-2)Gal(b1-4)GlcNAc(b1-2)Man(a1-3)[Fuc(a1-2)Gal(b1-4)GlcNAc(b1-2)Man(a1-6)]Man(b1-4)GlcNAc(b1-4)GlcNAc", "summary_of_the_method": "as §1"}, "[23]": {"target": "Fuc(a1-2)Gal(b1-4)GlcNAc(b1-2)Man(a1-3)[Fuc(a1-2)Gal(b1-4)GlcNAc(b1-2)Man(a1-6)]Man(b1-4)GlcNAc(b1-4)[Fuc(a1-6)]GlcNAc", "summary_of_the_method": "as §1"}, "[24]": {"target": "Fuc(a1-2)Gal(b1-4)GlcNAc(b1-2)[Fuc(a1-2)Gal(b1-4)GlcNAc(b1-4)]Man(a1-3)[Fuc(a1-2)Gal(b1-4)GlcNAc(b1-2)Man(a1-6)]Man(b1-4)GlcNAc(b1-4)GlcNAc", "summary_of_the_method": "as §1"}},
  "note": "This is one part of the list.",
  "data": [
    {"binder": "B1", "values": [
      {"measurement": "glycan array binding signal (z-score)", "setting": "Fuc(a1-2)Gal", "result": -0.256},
      {"measurement": "glycan array binding signal (z-score)", "setting": "Fuc(a1-2)Gal(b1-3)GalNAc", "result": -0.169},
      {"measurement": "glycan array binding signal (z-score)", "setting": "[1]", "result": -0.214},
      {"measurement": "glycan array binding signal (z-score)", "setting": "[2]", "result": 0.402},
      {"measurement": "glycan array binding signal (z-score)", "setting": "[3]", "result": -0.144},
      {"measurement": "glycan array binding signal (z-score)", "setting": "[4]", "result": -0.195},
      {"measurement": "glycan array binding signal (z-score)", "setting": "[5]", "result": -0.272},
      {"measurement": "glycan array binding signal (z-score)", "setting": "[6]", "result": -0.072},
      {"measurement": "glycan array binding signal (z-score)", "setting": "Fuc(a1-2)Gal(b1-3)GlcNAc", "result": -0.221},
      {"measurement": "glycan array binding signal (z-score)", "setting": "[7]", "result": -0.235},
      {"measurement": "glycan array binding signal (z-score)", "setting": "[8]", "result": -0.234},
      {"measurement": "glycan array binding signal (z-score)", "setting": "[9]", "result": -0.233},
      {"measurement": "glycan array binding signal (z-score)", "setting": "[10]", "result": -0.23},
      {"measurement": "glycan array binding signal (z-score)", "setting": "[11]", "result": -0.137},
      {"measurement": "glycan array binding signal (z-score)", "setting": "[12]", "result": -0.125},
      {"measurement": "glycan array binding signal (z-score)", "setting": "[13]", "result": -0.206},
      {"measurement": "glycan array binding signal (z-score)", "setting": "[14]", "result": -0.09},
      {"measurement": "glycan array binding signal (z-score)", "setting": "[15]", "result": -0.254},
      {"measurement": "glycan array binding signal (z-score)", "setting": "[16]", "result": -0.161},
      {"measurement": "glycan array binding signal (z-score)", "setting": "[17]", "result": -0.188},
      {"measurement": "glycan array binding signal (z-score)", "setting": "[18]", "result": -0.179},
      {"measurement": "glycan array binding signal (z-score)", "setting": "[19]", "result": -0.125},
      {"measurement": "glycan array binding signal (z-score)", "setting": "[20]", "result": -0.114},
      {"measurement": "glycan array binding signal (z-score)", "setting": "Fuc(a1-2)Gal(b1-4)Glc", "result": -0.211},
      {"measurement": "glycan array binding signal (z-score)", "setting": "Fuc(a1-2)Gal(b1-4)Glc6S", "result": -0.249},
      {"measurement": "glycan array binding signal (z-score)", "setting": "Fuc(a1-2)Gal(b1-4)GlcNAc", "result": -0.255},
      {"measurement": "glycan array binding signal (z-score)", "setting": "[21]", "result": -0.228},
      {"measurement": "glycan array binding signal (z-score)", "setting": "[22]", "result": -0.235},
      {"measurement": "glycan array binding signal (z-score)", "setting": "[23]", "result": -0.234},
      {"measurement": "glycan array binding signal (z-score)", "setting": "[24]", "result": -0.23}
    ]}
  ]
}
